B1: LINE1-full (parent)
chain: UACGUAGGUGGUUUUCCCCUGAUAGUGCUAAGGGGGCCUGGAAGUUUGGACUGGGCAGAGCUCAACACAGCGUGGCAAAGUGGCUGUGGCUAGACUGCCUCUCUGGAUUCCUCGUCACUCAGCAGGGCAUCUCUGAGAGAAAUGCC

The source gives no read counts; variants with many changes may rest on few reads.

The data set covers variants of B1. Nature of the data set: self-cleavage, relative activity (ratio to wild type); higher = more cleavage; in vitro, sequencing; the parent is a self-cleaving ribozyme.
With A2G A6G U13C, the self-cleavage came out at 0.35. As to U1A G48A U96C U130A, the self-cleavage was found to be 0.2.

In the case of A2G U9C U20A U115A U119A U130C, the self-cleavage was 1.02. The result for U1C U46C U81C A117U reads 0.79. Consider A2G G10A A43C C63U C113U, for which the self-cleavage is 0.12. Turning to A2G G33A A43G A67G, the self-cleavage is 0.21.

Consider U1G U23A U62C A117U A138G, for which the self-cleavage turned out to be 0.

For U1C A24U A141G, the self-cleavage is 0.74. As for U1C A65G A92U, the self-cleavage was 0. On to U1C A22G U87A, for which the self-cleavage is 0.08.

U1C A77G A136G: the self-cleavage was found to be 0. For the variant U1C U62C A121C, the self-cleavage worked out at 0.35. Take U1C U13C U26C A67G A141G: the self-cleavage came out at 0. For the variant A2G U9C A138G, the self-cleavage came to 0.53. On to A2G A24G G41A G53A A136U, for which the self-cleavage was found to be 0.53. As for A2G A107U A129G, the self-cleavage was 2.92.

With U1C A65G U96C A141G, the self-cleavage was 0. In the case of A2G U26G U112A A121G U134A, the self-cleavage turned out to be 0.42. Turning to U1C U12C A107G, the self-cleavage was found to be 0.84.

As for A2G G40A U109A A141G U143A, the self-cleavage turned out to be 0.67. The result for A2G A43G U96A A138G reads 0.15; that for U1C A78G A92G, 0; that for U1C G35A C71U A136G, 0.75. Regarding A2G A24G A43G A59G, the self-cleavage is 0.

Regarding A2G A22U A79U G83A U134A A140G, the self-cleavage came out at 0.

In the case of U1C U15A U73C A138G A141G, the self-cleavage came to 0.51. The result for U1C U39A U100A U108C A141G reads 1.09; that for U1C U52C A65G, 0.14; that for A2G A79U U104A U134C, 1.96. Regarding A2G C38A A138U, the self-cleavage came to 0.46. A2G A31G A69G: the self-cleavage is 0.64. Turning to U1A A43G A65G, the self-cleavage came to 0.

Turning to A2G U20C U45C U47C A129G, the self-cleavage is 1.53. For the variant U1C U5A G35U U39C U119A, the self-cleavage was determined as 0.36.

Turning to U1C A42G A138G, the self-cleavage is 1.03. The result for A2G U20C U62G reads 0; that for U1C U14C U130C, 0.61; that for A2G A30U A142G, 0.52.

On to U1C U20C U96A U134C A138U, for which the self-cleavage is 0. As to U1C A79G U96C, the self-cleavage is 0. In the case of A2G C3U U20A A22U, the self-cleavage came out at 0.56. Consider U1C U15C U45C U119C, for which the self-cleavage came out at 1.25.

For the variant U1C A43G U91A U100C U102C U134A, the self-cleavage was 0.29. U1C U81C U96C A121C A138G: the self-cleavage was 0.92. The result for U1C U46A U130A reads 1.59; that for U1C C19U G89U, 0.03; that for U1C U85C U115C, 0.31. Take A2G U26A U45C G49A G58A U62C A65U U87C: the self-cleavage amounted to 0.15. Consider A2G A69G U96C, for which the self-cleavage was 0. As to U1C A42G U45C U143A, the self-cleavage was determined as 0.44. Regarding A2G U15C U62C A129U, the self-cleavage was found to be 0.45.

For A2G U12A U100C C128U, the self-cleavage was determined as 1.04. As to A2G G86A C113A U130C, the self-cleavage stood at 0.05.

As to U1C U96C A121U A141G, the self-cleavage came out at 0.08. The result for A2G G41A U45G U91C A142U reads 0.32. Consider U1C U52A U81C U108A A129U A138G, for which the self-cleavage was 1.48. Regarding A2G A94U U100C A107U, the self-cleavage is 0.26.

Take A2G U39C C133A: the self-cleavage was 0.63.

For U1C A64U A65G A77U, the self-cleavage was found to be 0.09. Regarding U1C A43G U102C, the self-cleavage was found to be 1.11. For A2G U20A U23C G33A U81C A107G A117U U143C, the self-cleavage stood at 0.

Regarding A2G G32A U39C G93A U119A, the self-cleavage amounted to 0.1. In the case of U1A G86A A121G U130A, the self-cleavage amounted to 0.08. Regarding A2G U15C C19U, the self-cleavage was determined as 1.29. With U1C A43G C61U, the self-cleavage was 0.06. In the case of A2G U15C U87C G105A A121G A141G A142G, the self-cleavage stood at 0.

Take A2G U15C A42U U112C: the self-cleavage stood at 1.27.

As to A2G U15C U96A, the self-cleavage came out at 0.21. Take U1C A22G A138G: the self-cleavage came out at 1.08.

Regarding U1C U91C A129C, the self-cleavage is 1.18.

As to A2G U14C C71G A121G, the self-cleavage came to 0.57.

On to A2G U13C A64U A121G A129G U143G, for which the self-cleavage amounted to 0.54. The result for A2G U12C U52C U87A reads 0.18. The result for U1C G49A A121G reads 0.52; that for U1C U12C A57G, 0.44; that for A2G U9C A50U A69U U73A, 0.21. Take U1C A22G U91C G106U: the self-cleavage was determined as 0.72.

Consider U1A A78U U104C A124U, for which the self-cleavage amounted to 2.24. The same measure for U1C U47A G75A U81A U87C: 0.11. For A2G U15C U47C U100C A138U, the self-cleavage stood at 0.

With A2G A30G A78G A140G, the self-cleavage was 0.4. Regarding U1C G75A A79G U115A U119C U132C, the self-cleavage amounted to 1.15. The result for U1C A78G A136G A138G reads 1.36; that for U1C A117G C120U, 1.5.

Consider A2G A67G U143A, for which the self-cleavage is 1.34. Turning to A2G U12C U45A A69U U73C, the self-cleavage is 0. On to U1C A92G U132C, for which the self-cleavage came to 0. Take A2G U14A U20C U23A: the self-cleavage amounted to 0.96. Turning to U1A G35U A57U, the self-cleavage turned out to be 0.48.

Consider A2G U26C G58U U73C, for which the self-cleavage is 0.12. For the variant A2G C61U A67G, the self-cleavage was 0.36. The same measure for U1C G40A U102C: 0.84.

In the case of A2G U14C A59G U73A U112C, the self-cleavage came out at 0.

On to A2G A42G G86A A129U A140U G144U, for which the self-cleavage is 0.33. U1C A43G A67G U81A: the self-cleavage was found to be 1.4. On to A2G U26C A59G G72A, for which the self-cleavage was found to be 0.48. As to U1C U9C U47A, the self-cleavage was found to be 0.27. Turning to A2G U39A C113A, the self-cleavage was determined as 2.63. U1C U45G A65G U119C: the self-cleavage stood at 0.

Turning to A2G C68U A117U A138G, the self-cleavage amounted to 0.51.

As to U1C U52A A59G G75C A77U C123U, the self-cleavage was found to be 0.05. For U1A U26A A42G U91C A141G, the self-cleavage amounted to 0.77.

Take U1A U15A U112C: the self-cleavage is 0.86. Take A2G U15A A22U U26C G54A U96C: the self-cleavage was 0.37. On to U1C A2G A57G A77G, for which the self-cleavage turned out to be 0. A2G U13G U47A G89A: the self-cleavage stood at 0.15. In the case of A2C G54A A64G U81C, the self-cleavage turned out to be 0.11. With U1A U46A A107G, the self-cleavage was found to be 0.73. U1C U45G A107G: the self-cleavage amounted to 1.1. On to U1C A6G U14C A42U G137U, for which the self-cleavage was found to be 0.82. Regarding A2G A24G C37U U47C A79G, the self-cleavage came to 0. In the case of A2G U14C U26C U115A, the self-cleavage is 0. Turning to U1C U45C U46A U81C, the self-cleavage was determined as 0. Regarding U1A U14A U45C, the self-cleavage amounted to 0.88. With U1C U12C C113U, the self-cleavage amounted to 0.78.

For A2G U14C A59G G74A, the self-cleavage is 0.18.

For the variant U1C A69C G144A, the self-cleavage was determined as 0.08. Consider A2G A43G G48A U81A, for which the self-cleavage was found to be 0.67. The result for A2G U39A U47C reads 1.06. U1G A69U U130C: the self-cleavage stood at 0.19. Regarding A2G U26C G135A, the self-cleavage turned out to be 0.97.

Regarding U1A U39C U102A U112C, the self-cleavage worked out at 1.27. Turning to U1C U14C A42U A57G U62A, the self-cleavage stood at 0.03.

Turning to U1C A78U U119A, the self-cleavage worked out at 1.56.

In the case of U1C G105U A117G, the self-cleavage was 0.54. Consider U1A U12C C90U, for which the self-cleavage came to 0.21.

With U1C U20C G114A A142G, the self-cleavage was found to be 0.72. Consider A2G C116U U130C, for which the self-cleavage stood at 0.96.

A2G A42G U52C A124G: the self-cleavage was 0. With U1C U23C U46C U109A C118U, the self-cleavage turned out to be 1.03. For the variant A2G C18A U39A C68U A94U, the self-cleavage was found to be 0.2. In the case of A2G A57U A136G A142G, the self-cleavage is 0. As for U1C U5C U14C U102C C111U, the self-cleavage came to 0.61. As for U1C A2G U81C, the self-cleavage came out at 0.4.

Regarding A2G A42U C120U, the self-cleavage was found to be 1.06. The same measure for A2G A43G C120A: 0; for U1G A6G A64G: 0.38; for U1A A6C A64G A67U: 0.47. With U1C C19A U52G U87A, the self-cleavage was found to be 0. With A2G G27A U130C U134C, the self-cleavage was found to be 1.11.

U1A U91A A138G: the self-cleavage stood at 0.36.

Consider U1C A124U U130C, for which the self-cleavage was found to be 1.24.

On to U1C U81G U115C C131U A136G, for which the self-cleavage is 0.75.

Consider U1C G44A A141G, for which the self-cleavage came out at 1.19. As for A2G U9C A65G, the self-cleavage was found to be 0. The same measure for A2G C63A A69U A117U U130C: 0.18; for U1C G10U U96A A107G: 0.34; for A2G U12C U45C: 0.5. With U1G U102C A138G, the self-cleavage was 0.

As for A2G G35A A92G, the self-cleavage turned out to be 0.18. As to U1C A77G U100C, the self-cleavage was determined as 0.46. For A2G A57G A64U G89A U91A U108C, the self-cleavage amounted to 0. For the variant A2G A69C U100C U132C, the self-cleavage came to 1.84. Consider A2G U14C A59U U132C, for which the self-cleavage stood at 0.61.

Turning to A2G G89U A107G, the self-cleavage turned out to be 0.32. As for U1C A65G A136G, the self-cleavage came out at 0.19. As to A2G U29C C98U, the self-cleavage was found to be 0.73. As to U1C A59G U62C U91A U96A U109C, the self-cleavage worked out at 0.75. Turning to A2G U14A A50U A94U U96A C101U U109C, the self-cleavage worked out at 0.25. Take U1C U20C U109C: the self-cleavage was determined as 0.63.

For U1A U13C A22G U115C U130A, the self-cleavage worked out at 0. The same measure for U1C A94U U112C: 0.07; for A2C C113A A140G: 0.85. On to U1C U15C A117U, for which the self-cleavage stood at 0.77. In the case of A2C U39C U45C, the self-cleavage is 1.13.

On to U1A U13C U45C U115C U134A, for which the self-cleavage worked out at 0.

Consider U1C U104C C146U, for which the self-cleavage was 0.58.

Values taken from the RNAGym collection of RNA variant scans (doi:10.7554/elife.90254).
